# Results taken from FireProtDB (doi:10.1021/bi00080a026).
# Conditions: Escherichia coli (strain K12), Thermal, DSC, Sodium phosphate 50 mM, reversible: yes
substance,measurement,setting,value
Thioredoxin 1 wild type (no sequence given),Tm,pH 6,88.4 °C
same,heat capacity change of unfolding,pH 6,0.98 kcal/mol/K
same,unfolding enthalpy (calorimetric),pH 6,83.4 kcal/mol
same,unfolding enthalpy (van 't Hoff),pH 6,102 kcal/mol
same,Tm,pH 6.5,86.4 °C
same,heat capacity change of unfolding,pH 6.5,1.76 kcal/mol/K
same,unfolding enthalpy (calorimetric),pH 6.5,106 kcal/mol
same,unfolding enthalpy (van 't Hoff),pH 6.5,106 kcal/mol
same,Tm,pH 7,86 °C
same,heat capacity change of unfolding,pH 7,1.3 kcal/mol/K
same,unfolding enthalpy (calorimetric),pH 7,96.5 kcal/mol
same,unfolding enthalpy (van 't Hoff),pH 7,110 kcal/mol
same,Tm,pH 7.25,85 °C
same,heat capacity change of unfolding,pH 7.25,0.95 kcal/mol/K
same,unfolding enthalpy (calorimetric),pH 7.25,96.8 kcal/mol
same,unfolding enthalpy (van 't Hoff),pH 7.25,118 kcal/mol
same,Tm,pH 7.5,83.5 °C
same,heat capacity change of unfolding,pH 7.5,1.9 kcal/mol/K
same,unfolding enthalpy (calorimetric),pH 7.5,97.3 kcal/mol
same,unfolding enthalpy (van 't Hoff),pH 7.5,121 kcal/mol
same,Tm,pH 7.75,83.9 °C
same,heat capacity change of unfolding,pH 7.75,2.28 kcal/mol/K
same,unfolding enthalpy (calorimetric),pH 7.75,91.3 kcal/mol
same,unfolding enthalpy (van 't Hoff),pH 7.75,120 kcal/mol
same,Tm,pH 8,83.3 °C
same,heat capacity change of unfolding,pH 8,3.84 kcal/mol/K
same,unfolding enthalpy (calorimetric),pH 8,85.9 kcal/mol
same,unfolding enthalpy (van 't Hoff),pH 8,119 kcal/mol
